Test results taken from PubChem BioAssay (NCI).
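Compound exposure: 48 hours, 5 concentrations, 96-well plates. GI50 is the concentration that inhibits growth by half. TGI: total growth inhibition.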

tested on: NCI-H322M lung; test: growth of human tumour cells (NCI), 48 h

Row | Structure (SMILES) | GI50 [µM] | TGI [µM]
1 | COc1ccc2[nH]cc(-c3nc(N)nnc3-c3cn(C)c4ccc(Br)cc34)c2c1 | 3.85 | 22.5
2 | N#Cc1c(NC(=O)c2ccccc2C(F)(F)F)sc2c1CCC(=O)C2 | 5.88 | > 100
3 | O=C(N/N=C/c1ccc([N+](=O)[O-])s1)c1[nH]c2ccc(Br)cc2c1-c1ccccc1 | 2.57 | > 74.9
